In the supplement of paper PMC10126150 one finds switch fluorescence ratio data, which are given here for 120 sequences.

Sequences with one replicate were seen in a single cluster, so their values are uncertain.

This data set has as its system ATP. Put plainly: switch fluorescence ratio, 500 uM ATP over buffer (Cy3 cluster intensity, sum of 5 cycles each) (fold (ratio)); higher = stronger signal-on switching upon ATP binding; sequences stand for … in TCGTCGGCAGCGTCAGATGTGTATAAGAGACAGTTTTTTTTTTTTTTTTTTTTTTTTT…TC. The note with it: aptamer strand: ATP DNA aptamer (quencher-CACCTGGGGGAGTATTGCGGAGGAAGG + anchor), 100 nM annealed; ATP concentration: 500 uM; one replicate. An outline of the steps: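 Five buffer/ATP imaging cycles were run on Cy3-labelled switching-strand clusters on a modified Illumina MiSeq flow-cell, with NaOH stripping and re-annealing between cycles. In each cycle, clusters annealed to 100 nM quencher-labelled ATP aptamer were imaged in selection buffer, then after 15 min with 500 uM ATP at 22 °C. Per cluster, the fluorescence ratio is summed target-cycle over summed buffer-cycle Cy3 intensity, averaged per switch-domain sequence. Only clusters within 100-1000 RFU were kept.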
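Further: ATP exposure 15 min at 22 °C before imaging.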

For CGGTGTTTAC, the switch fluorescence ratio was found to be 1.

On to TCATTTAAAT, for which the switch fluorescence ratio was 0.981.

In the case of CTGTTAGGTG, the switch fluorescence ratio was 1.14.

TCGATCGTAG: the switch fluorescence ratio was 0.995.

For GATACATGGT, the switch fluorescence ratio was 1.01.

In the case of TAAACAAAAA, the switch fluorescence ratio amounted to 0.967.

With GGTTACCCGT, the switch fluorescence ratio was determined as 0.947.

In the case of GATAGGACG, the switch fluorescence ratio worked out at 1.08.

For the sequence TTGTGCTT, the switch fluorescence ratio turned out to be 0.967.

Take CTCGGACCGT: the switch fluorescence ratio is 1.01.

GAAGGTTTCC: the switch fluorescence ratio turned out to be 0.992.

For the sequence TGGGTACCTG, the switch fluorescence ratio is 1.01.

Turning to TCGAATGTAA, the switch fluorescence ratio came to 1.04.

With GCACGGGTA, the switch fluorescence ratio is 0.995.

On to ATCCTTTTAT, for which the switch fluorescence ratio was found to be 0.963.

Regarding TCTGAATTTG, the switch fluorescence ratio stood at 1.2.

Turning to ATTGTGTGTC, the switch fluorescence ratio stood at 0.909.

Regarding ACTCGTGTAT, the switch fluorescence ratio was 1.02.

As for GGCAGGCGGC, the switch fluorescence ratio is 1.05.

CGTCCATGCA: the switch fluorescence ratio stood at 1.32.

As to TTGACAAAGG, the switch fluorescence ratio came out at 0.981.

Take GGGTGTCGCA: the switch fluorescence ratio was 1.

In the case of ATGTAGCCCC, the switch fluorescence ratio worked out at 0.997.

On to TGCCGATTAT, for which the switch fluorescence ratio came to 0.993.

Take GACCCTGCTG: the switch fluorescence ratio was 1.07.

Take CCTTCTGGGC: the switch fluorescence ratio was 1.3.

Turning to GGAGGGTGCT, the switch fluorescence ratio worked out at 0.956.

For the sequence TTTCCTTTAG, the switch fluorescence ratio was found to be 1.04.

With CGCCAGTAAG, the switch fluorescence ratio was found to be 1.04.

Take TAGGGTTGAC: the switch fluorescence ratio stood at 1.04.

With ATTGGGGTCG, the switch fluorescence ratio worked out at 1.06.

For the sequence TATTGCGATG, the switch fluorescence ratio turned out to be 1.03.

On to CAATTCGGGC, for which the switch fluorescence ratio was found to be 1.01.

Regarding ATGGACTAGT, the switch fluorescence ratio was found to be 0.969.

Consider AAGCAGCAGT, for which the switch fluorescence ratio worked out at 1.08.

As for ATAAGTAGCC, the switch fluorescence ratio was found to be 1.05.

As for ATTCGTTATA, the switch fluorescence ratio stood at 0.975.

For ATCATTAGTT, the switch fluorescence ratio was 0.968.

Consider CCTTGGAGGG, for which the switch fluorescence ratio was 0.975.

Consider GTTTGTAGCT, for which the switch fluorescence ratio amounted to 1.35.

For the sequence CCGAGAATAG, the switch fluorescence ratio came to 5.26.

As to ACGACAGACG, the switch fluorescence ratio came out at 1.14.

As for CCCGTTGAAA, the switch fluorescence ratio stood at 1.

In the case of AGAAATGTCA, the switch fluorescence ratio was 1.08.

CCATGATTAT: the switch fluorescence ratio is 0.966.

In the case of TATAGCATGG, the switch fluorescence ratio was found to be 1.03.

Regarding ATCAAAATGA, the switch fluorescence ratio came to 1.

TTGTCTGTGT: the switch fluorescence ratio is 0.993.

For the sequence GGTACCGATA, the switch fluorescence ratio was 1.01.

For the sequence ACCTTTATT, the switch fluorescence ratio was found to be 1.04.

As for CTGTTTCACC, the switch fluorescence ratio came to 1.01.

On to AAAACAAGTT, for which the switch fluorescence ratio was determined as 1.01.

Take AAGGATTCAG: the switch fluorescence ratio came out at 0.986.

As to ATACTTAGT, the switch fluorescence ratio was 0.976.

Consider TCGGCTACTA, for which the switch fluorescence ratio was determined as 1.02.

CTCAAGCTAG: the switch fluorescence ratio was determined as 1.21.

With ACCAACCAAA, the switch fluorescence ratio was 1.36.

For the sequence TTCCTGAGTG, the switch fluorescence ratio was 1.06.

As to GTTGCAGAAA, the switch fluorescence ratio stood at 1.02.

Regarding GGGGCAAGGC, the switch fluorescence ratio turned out to be 1.07.

With TCGGAGAGCA, the switch fluorescence ratio is 1.06.

For AGGAGAGGA, the switch fluorescence ratio stood at 0.976.

Consider TGTCG, for which the switch fluorescence ratio came out at 1.01.

Take TAAGCGTAAC: the switch fluorescence ratio was 1.12.

On to ATAAGAGT, for which the switch fluorescence ratio worked out at 1.03.

In the case of CTCAACGGAT, the switch fluorescence ratio worked out at 1.03.

For ATCTCTCAAA, the switch fluorescence ratio was determined as 1.02.

TGTATCAAAG: the switch fluorescence ratio was found to be 0.972.

Take ACGGCTTCAC: the switch fluorescence ratio amounted to 1.02.

Take AACGGTCCAC: the switch fluorescence ratio was 1.2.

With AAAAATGTTT, the switch fluorescence ratio was 1.05.

GGAACTATAA: the switch fluorescence ratio came to 1.01.

Take ATTTCATTAA: the switch fluorescence ratio stood at 0.997.

Take TACATGACCT: the switch fluorescence ratio is 1.15.

For TTCATACCCC, the switch fluorescence ratio worked out at 1.1.

For GCTGGAGGAT, the switch fluorescence ratio was 0.986.

As for TGTCGTAGAG, the switch fluorescence ratio is 1.04.

Regarding CGCTTCCCTT, the switch fluorescence ratio amounted to 1.14.

As to TCTGTTCAGT, the switch fluorescence ratio stood at 1.02.

Take AGCGGAGACT: the switch fluorescence ratio is 1.03.

Turning to TTGATTCGCG, the switch fluorescence ratio came out at 1.04.

As for AACAGAGTCC, the switch fluorescence ratio was found to be 1.02.

Turning to GAGGGAGATC, the switch fluorescence ratio was 1.04.

Consider CAAAGTTGTG, for which the switch fluorescence ratio was determined as 0.981.

CAATAAACGG: the switch fluorescence ratio was 1.01.

In the case of TAGCACTCCT, the switch fluorescence ratio turned out to be 1.18.

As for GGGGTTCGGA, the switch fluorescence ratio is 0.984.

Turning to AGAAGGTAAC, the switch fluorescence ratio came out at 1.35.

On to AATTTGAGCG, for which the switch fluorescence ratio is 0.962.

Regarding GAGTCAGGGC, the switch fluorescence ratio came to 1.01.

On to AGTCCGGATG, for which the switch fluorescence ratio stood at 1.03.

In the case of CATTATGGCG, the switch fluorescence ratio came to 0.934.

Take TAGGCGCGCA: the switch fluorescence ratio amounted to 1.01.

Turning to CAGGTCCGG, the switch fluorescence ratio was 0.986.

Regarding TCAAGTATTT, the switch fluorescence ratio was 1.

As to GCGCTATGTA, the switch fluorescence ratio was 1.01.

Regarding GGTTTACCAT, the switch fluorescence ratio came to 1.02.

For GTGTTCCTCA, the switch fluorescence ratio amounted to 1.02.

For the sequence TTCGTTGACC, the switch fluorescence ratio stood at 0.999.

GGGCGCTCT: the switch fluorescence ratio was 1.

As to CGCCTGCCGA, the switch fluorescence ratio worked out at 0.995.

With GTCTGAGTAG, the switch fluorescence ratio worked out at 1.03.

Regarding GAGTTCATG, the switch fluorescence ratio turned out to be 0.96.

For the sequence TACTCACCA, the switch fluorescence ratio amounted to 1.24.

Consider AGTAGATCGG, for which the switch fluorescence ratio turned out to be 0.991.

Take ATACAAAGGG: the switch fluorescence ratio worked out at 1.01.

As for TCTAGGGGCC, the switch fluorescence ratio was found to be 1.01.

Take GATAAAAAG: the switch fluorescence ratio was 0.961.

On to AAGCAACAGC, for which the switch fluorescence ratio amounted to 1.1.

As to GTAAATTGGG, the switch fluorescence ratio was determined as 0.959.

GCATAAAGAA: the switch fluorescence ratio was determined as 1.02.

As for GATTTCTGTG, the switch fluorescence ratio amounted to 0.966.

Take CTATTGATTT: the switch fluorescence ratio worked out at 0.984.

As to TGATTCAAGA, the switch fluorescence ratio is 0.939.

For CCGGGATCCG, the switch fluorescence ratio turned out to be 1.06.

GTGATTCACG: the switch fluorescence ratio was found to be 0.988.

On to CAAAGACCAC, for which the switch fluorescence ratio was determined as 0.972.

Regarding GACGATGTTG, the switch fluorescence ratio was determined as 1.02.

As to AATGACCTAC, the switch fluorescence ratio was 1.25.

Regarding GTATCAGCTC, the switch fluorescence ratio amounted to 0.977.
